Assay results published in the supplement of paper PMC9446081.
The campaign covered roughly 39,000 compounds. About 220 (0.56%) showed activity. Some of the results follow.
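Further: static incubation at 37 °C against the wild-type strain, values averaged over two biological replicates.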

The molecules below were run on Escherichia coli K-12 BW25113 (assay: relative growth (OD600 normalised to plate interquartile mean) (fraction); higher = less growth inhibition, active = 0.2 or less). Details: 50 µM; LB; incubation time: overnight (16-24 h).
For `O=C(Nc1cc(Cl)ccc1Cl)c1cc(Br)ccc1NS(=O)(=O)c1ccc(Cl)c([N+](=O)[O-])c1`, the relative growth was inactive: 0.756.
In the case of `C[C@H](CO)N1C[C@H](C)[C@H](CN(C)C(=O)Cc2ccccn2)Oc2ncc(-c3ccc(F)cc3)cc2C1=O`, the relative growth is reported as inactive: 0.983.
In the case of `C[C@H]1CN([C@@H](C)CO)C(=O)c2cccc(NC(=O)c3nc4ccccc4s3)c2O[C@H]1CN(C)Cc1ccc(Cl)c(Cl)c1`, the relative growth is reported as inactive: 1.01.
For `CC(C)NC(=O)Nc1ccc2c(c1)C(=O)N([C@H](C)CO)C[C@H](C)[C@@H](CN(C)S(C)(=O)=O)OCCCC[C@H](C)O2`, the relative growth was inactive: 1.
`Cc1ccc(S(=O)(=O)Nc2ccc3c(c2)C(=O)N([C@H](C)CO)C[C@H](C)[C@H](CN(C)Cc2ccncc2)OCCCC[C@@H](C)O3)cc1` was tested, and the relative growth was inactive: 0.986.
With `C[C@@H]1CN([C@H](C)CO)C(=O)c2cc(Br)cnc2O[C@@H]1CN(C)C(=O)Nc1cccc(F)c1` the relative growth was inactive: 0.996.
With `C[C@@H]1CCCCO[C@H](CN(C)Cc2ccc3c(c2)OCO3)[C@H](C)CN([C@H](C)CO)C(=O)c2cc(NC(=O)Nc3ccccc3)ccc2O1` the relative growth was inactive: 1.02.
With `NC1=NCCN1CC(=O)O` the relative growth was inactive: 1.02.
In the case of `C[C@@H]1CN([C@@H](C)CO)C(=O)Cc2cc(NC(=O)Nc3ccc4c(c3)OCO4)ccc2O[C@H]1CN(C)C(=O)Nc1cccc2ccccc12`, the relative growth is reported as inactive: 0.993.
For `C[C@H](CO)N1C[C@H](C)[C@H](CN(C)C(=O)Nc2ccc(C(F)(F)F)cc2)Oc2ccc(NC(=O)CCCCCC(=O)Nc3ccccc3N)cc2C1=O`, the relative growth was inactive: 0.925.
In the case of `Nc1ccc2[nH]c(=S)sc2c1`, the relative growth is reported as inactive: 1.01.
For `C[C@@H]1CN([C@@H](C)CO)C(=O)Cc2cc(NS(=O)(=O)c3ccc(Cl)cc3)ccc2O[C@@H]1CN(C)C`, the relative growth was inactive: 1.01.
With `COc1ccc(NC(=O)N(C)C[C@@H]2OCCCC[C@@H](C)Oc3ccc(NC(=O)c4ccncc4)cc3C(=O)N([C@H](C)CO)C[C@@H]2C)cc1` the relative growth was inactive: 0.919.
For `C[C@@H]1CCCCO[C@H](CN(C)S(=O)(=O)c2cccs2)[C@@H](C)CN([C@@H](C)CO)C(=O)c2cc(NS(=O)(=O)c3ccc(Cl)cc3)ccc2O1`, the relative growth was inactive: 1.03.
With `COc1ccc(NC(=O)N(C)C[C@@H]2OCCCC[C@@H](C)Oc3ccc(NC(=O)Nc4ccc(C(F)(F)F)cc4)cc3C(=O)N([C@H](C)CO)C[C@@H]2C)cc1` the relative growth was inactive: 1.03.
In the case of `Cl.NC(N)=NC(N)=NCCc1ccccc1`, the relative growth is reported as inactive: 1.17.
For `O=C(O)c1cccc(-c2ccccc2)c1`, the relative growth was inactive: 0.978.
With `C[C@@H]1CN([C@@H](C)CO)C(=O)CCCn2nncc2CO[C@H]1CN(C)S(=O)(=O)c1ccc(C#N)cc1` the relative growth was inactive: 0.984.
For `COc1ccc(S(=O)(=O)N2C[C@@H](O)COC[C@H]3O[C@@H](CC(=O)N[C@@H]4CCN(Cc5ccccc5)C4)CC[C@@H]32)cc1`, the relative growth was inactive: 0.997.
`C[C@H](CO)N1C[C@H](C)[C@H](CN(C)S(=O)(=O)c2cn(C)cn2)OCCCC[C@H](C)Oc2ccc(NC(=O)c3ccncc3)cc2C1=O` was tested, and the relative growth was inactive: 0.966.
In the case of `C[C@@H]1CCCCO[C@@H](CN(C)S(=O)(=O)c2ccccc2)[C@H](C)CN([C@H](C)CO)C(=O)c2cc(NC(=O)Nc3ccc(F)cc3)ccc2O1`, the relative growth is reported as inactive: 1.03.
With `Cc1cc(-c2ccccc2)nc(SCc2ccccc2)c1C#N` the relative growth was inactive: 1.
With `COc1ccc(NC(=O)Nc2ccc3c(c2)C(=O)N([C@H](C)CO)C[C@H](C)[C@@H](CN(C)CC2CCCCC2)O3)cc1` the relative growth was inactive: 1.
`C[C@@H]1CN([C@@H](C)CO)C(=O)c2cccc(NC(=O)C3CC3)c2O[C@H]1CN(C)Cc1ccc(C(=O)O)cc1` was tested, and the relative growth was inactive: 1.04.
In the case of `CCOc1ccc(/C=C/C(=O)Sc2ccc(Cl)cc2)cc1`, the relative growth is reported as inactive: 1.05.
With `C[C@H]1CN([C@@H](C)CO)C(=O)Cc2cc(NC(=O)Nc3ccc4c(c3)OCO4)ccc2O[C@H]1CN(C)S(=O)(=O)c1cn(C)cn1` the relative growth was inactive: 0.835.
For `C[C@H](CO)N1C[C@H](C)[C@@H](CN(C)S(=O)(=O)c2ccc(F)cc2)Oc2ccc(NC(=O)CCCN(C)C)cc2C1=O`, the relative growth was inactive: 0.998.
In the case of `C[C@@H](NC(=O)C[C@H]1C=C[C@@H](NC(=O)CN2CCOCC2)[C@H](CO)O1)c1ccccc1`, the relative growth is reported as inactive: 0.98.
`COc1ccc(NC(=O)N[C@H]2CC[C@H](CCNC(=O)CN3CCOCC3)O[C@H]2CO)cc1` was tested, and the relative growth was inactive: 0.971.
With `Cc1noc(C)c1NC(=O)N(C)C[C@@H]1Oc2ccc(NC(=O)c3ccncc3)cc2CC(=O)N([C@H](C)CO)C[C@H]1C` the relative growth was inactive: 0.971.
`CCCCN(C/C=C/c1ccccc1OC)Cc1ccccc1` was tested, and the relative growth was inactive: 0.97.
`COc1ccc(S(=O)(=O)N(C)C[C@@H]2OCCCC[C@H](C)Oc3ccc(NC(=O)NC4CCCCC4)cc3C(=O)N([C@@H](C)CO)C[C@H]2C)cc1` was tested, and the relative growth was inactive: 1.02.
In the case of `O=C(C[C@@H]1C[C@@H]2c3cc(NC(=O)Nc4ccc(C(F)(F)F)cc4)ccc3O[C@@H]2[C@@H](CO)O1)NCCc1ccccc1`, the relative growth is reported as inactive: 0.986.
`C[C@@H]1CN([C@@H](C)CO)C(=O)c2c(c3ccccc3n2C)-c2ccccc2CO[C@H]1CN(C)Cc1ccc(Cl)c(Cl)c1` was tested, and the relative growth was inactive: 1.07.
In the case of `COc1cccc(-c2cn(CC[C@H]3CC[C@H](NC(=O)CN(C)C)[C@H](CO)O3)nn2)c1`, the relative growth is reported as inactive: 1.04.
With `C[C@@H]1CN([C@@H](C)CO)C(=O)CCCn2cc(nn2)CO[C@H]1CN(C)S(=O)(=O)c1ccc(-n2cccn2)cc1` the relative growth was inactive: 0.998.
In the case of `C[C@H]1CCCCO[C@@H](CN(C)S(=O)(=O)c2ccccc2)[C@@H](C)CN([C@@H](C)CO)C(=O)c2cc(NC(=O)Nc3ccccc3)ccc2O1`, the relative growth is reported as inactive: 1.01.
With `CC1NC(=O)C2CCCN2C(=O)C(CC(N)=O)NC(=O)C2CSSCC(N)C(=O)NC3CSSCC(NC1=O)C(=O)NC(C(C)O)C(=O)NCC(=O)NC(C(=O)NC(Cc1ccc(O)cc1)C(=O)O)CSSCC(NC(=O)C(Cc1ccc(O)cc1)NC(=O)C(CCC(=O)O)NC3=O)C(=O)N2` (configuration not stated) the relative growth was inactive: 1.03.
With `C[C@@H]1CCCCO[C@H](CN(C)C(=O)Nc2ccc(C(F)(F)F)cc2)[C@@H](C)CN([C@@H](C)CO)C(=O)c2cc(NC(=O)NC3CCCCC3)ccc2O1` the relative growth was inactive: 1.01.
`O=C(C[C@@H]1C[C@H]2c3cc(NS(=O)(=O)c4ccc(F)cc4)ccc3O[C@H]2[C@H](CO)O1)NCc1cccnc1` was tested, and the relative growth was inactive: 1.01.
`NC(=O)N1Cc2nccn2C[C@H](Cn2cncn2)C1` was tested, and the relative growth was inactive: 0.969.
In the case of `Cc1ccc(S(=O)(=O)Nc2ccc3c(c2)C(=O)N([C@H](C)CO)C[C@@H](C)[C@@H](CN(C)S(=O)(=O)c2ccc(F)cc2)OCCCC[C@H](C)O3)cc1`, the relative growth is reported as inactive: 1.06.
`C[C@@H]1CN([C@H](C)CO)C(=O)Cc2cc(NS(=O)(=O)c3cccs3)ccc2O[C@H]1CN(C)CC1CC1` was tested, and the relative growth was inactive: 1.03.
`O=C(C[C@@H]1C=C[C@@H](NC(=O)Cc2ccccn2)[C@@H](CO)O1)NCCCN1CCOCC1` was tested, and the relative growth was inactive: 0.957.
With `C[C@@H]1CN([C@H](C)CO)C(=O)c2cc(NC(=O)CCC(F)(F)F)ccc2O[C@@H]1CN(C)Cc1ccc(C(=O)Nc2ccccc2N)cc1` the relative growth was inactive: 1.02.
For `COc1cc(C)c2c(=O)c(-c3ccccc3)coc2c1`, the relative growth was inactive: 1.
With `O=C(C[C@H]1CC[C@H]2[C@@H](COC[C@H](O)CN2C(=O)Nc2cccc(Cl)c2)O1)NCc1ccccc1F` the relative growth was inactive: 1.01.
For `COCCN1CCC(N(Cc2ccc(-c3ccc(C(F)(F)F)cc3)cc2)C(=O)Cn2c(SCc3cccc(F)c3F)cc(=O)c3ccccc32)CC1`, the relative growth was inactive: 0.948.
`COc1ccc2c3c([nH]c2c1)[C@H](CO)N(C[C@]13CN(CC2CCOCC2)C1)S(=O)(=O)c1cn(cn1)C` was tested, and the relative growth was inactive: 0.96.
In the case of `COc1ccc2c3c(n(c2c1)C)[C@H](CO)N(C[C@]13CCN(CC1)C(=O)Nc1cccc(c1)F)C(=O)C1CCCCC1`, the relative growth is reported as inactive: 1.01.
In the case of `Cc1ccc(S(=O)(=O)N(C)C[C@@H]2OCCCC[C@@H](C)Oc3ccc(NC(=O)c4ccccc4)cc3C(=O)N([C@@H](C)CO)C[C@@H]2C)cc1`, the relative growth is reported as inactive: 1.
In the case of `CCCNC(=O)N(C)C[C@@H]1Oc2cc(C#Cc3ccccn3)ccc2S(=O)(=O)N([C@@H](C)CO)C[C@@H]1C`, the relative growth is reported as inactive: 0.971.
In the case of `CC(C)NC(=O)N(C)C[C@H]1OCCCC[C@H](C)Oc2ccc(NC(=O)Nc3ccccc3)cc2C(=O)N([C@H](C)CO)C[C@@H]1C`, the relative growth is reported as inactive: 1.
In the case of `C[C@@H]1CN([C@@H](C)CO)C(=O)Cc2cc(NS(C)(=O)=O)ccc2O[C@@H]1CN(C)S(=O)(=O)c1ccc(F)cc1`, the relative growth is reported as inactive: 0.996.
`Cc1cccnc1[C@@H](NC(=O)C1CCN(Cc2ccc(Oc3ccccc3)cc2)CC1)c1ccc(F)cc1` was tested, and the relative growth was inactive: 1.04.
With `NC[C@H](c1ccncc1)c1ccc[nH]1` the relative growth was inactive: 0.978.
In the case of `Cc1cnc(NC(=O)C2=C(O)c3ccccc3S(=O)(=O)N2C)s1`, the relative growth is reported as inactive: 1.14.
For `CN(C)CCCNC(=O)C[C@H]1CC[C@@H]2[C@H](COC[C@@H](O)CN2S(=O)(=O)c2ccc(Cl)cc2)O1`, the relative growth was inactive: 1.01.
For `C[C@@H]1CN([C@H](C)CO)S(=O)(=O)c2ccc(C#CCN(C)C)cc2O[C@@H]1CN(C)C`, the relative growth was inactive: 1.
`Cc1noc(C)c1NC(=O)N(C)C[C@H]1OCCCC[C@@H](C)Oc2ccc(NS(=O)(=O)c3ccc(F)cc3)cc2C(=O)N([C@H](C)CO)C[C@H]1C` was tested, and the relative growth was inactive: 0.988.
In the case of `CC1(C)[C@H](C(=O)O)CC[C@@]1(C)C(N)=O`, the relative growth is reported as inactive: 0.986.
`CC(C)NC(=O)Nc1cccc2c1O[C@H](CN(C)C(=O)Nc1ccc3c(c1)OCO3)[C@H](C)CN([C@@H](C)CO)C2=O` was tested, and the relative growth was inactive: 1.
